According to ChEMBL document CHEMBL1157539, “Thousands of chemical starting points for antimalarial lead identification” (Nature, 2010):
Over roughly 13,000 compounds, “IFI” has its median near 4; the highest 2% begin near 17. The list shows a part of the results.

assay: GSK_TCMDC: Inhibition Frequency Index (IFI). The number of non-kinase HTS assays where a compound showed > 50 % inhibition, expressed as a percentage of the number of such assays in which the compound was tested (-0 is zero); format: functional

Structure (SMILES) | IFI
COc1ccc(/C=C/C(=O)N2CCc3cc4nccc(N5CCN6CCC[C@H]6C5)c4cc32)cc1 | 4.48%
Cc1cc(-c2c[nH]c3ncc(-c4cccc5ncccc45)cc23)ccc1C(=O)O | 2.8%
Cc1[nH]cc(Br)c(=O)c1-c1ccc(Oc2ccccc2)cc1 | 1.83%
NC(=O)C1CCN(Cc2cccc(-c3cccc(-c4nc5cc(C(F)(F)F)ccc5[nH]4)c3)c2)CC1 | 4.81%
CCOC(=O)c1cnc2c(C(F)(F)F)cccc2c1Nc1ccc(O)cc1 | 10%
COc1cc(Cc2cnc(N)nc2N)cc(OC)c1OCCCCCN1C(=O)c2ccccc2C1=O | 4.29%
Cn1nccc1C(=O)NCCNCc1cccc(-c2ccc(-c3nc4ccccc4[nH]3)cc2)c1 | 2.94%
Clc1ccc(OCc2ccccc2)c(-c2nc(-c3nc4ncc(Br)cc4[nH]3)cs2)c1 | 1.32%
COc1ccccc1CCNC(=O)c1cc(Br)cc(N2CCN(c3ccncc3)CC2)c1 | 6.9%
Cc1cc(F)ccc1-c1nc(N(C)CCN(C)C(=O)N(C)c2ccccc2)nc2c1ccc(=O)n2-c1c(F)cccc1F | 7.91%
COc1cccc2c(NN=Cc3ccccc3F)ccnc12 | 3.65%
CCN(CC)CCCOC(=O)c1ccc2c(c1)-c1ccc(C(=O)OCCCN(CC)CC)c3cccc-2c13 | 3.68%
Cc1noc(C)c1-c1ccc2c(Nc3ccccc3C(C)(C)C)c(C(=O)NCc3ccc4c(c3)OCO4)cnc2c1 | 6.9%
O=C1c2ccccc2-n2c1nc1ccccc1c2=O | 2.99%
Cc1cc(Cl)c(S(=O)(=O)N(C)c2ccccc2)cc1OCC(=O)NC1CCCCC1 | 1.79%
c1cncc(CCNCc2ccc(-c3ccc(CNC4Cc5ccccc5C4)cc3)cc2)c1 | 4.23%
Cc1cccc2nc(-c3ccc(-c4cccc(CNCc5cccc(N)c5)c4)cc3)[nH]c12 | 6.67%
COc1cc2nc(NCCc3cccc(Cl)c3)nc(NCc3ccccc3)c2cc1OC | 17.1%
CCNc1cc(C(=O)N[C@@H](Cc2ccccc2)[C@H](O)CNC2(CC(C)C)CC2)cc(N2CCCCS2(=O)=O)c1 | 2.22%
Cc1cc(Oc2ccc(-n3ccnc3)cc2)nc(N2CCN(CCCN3CCCC3)CC2)n1 | 3.81%

Structure (SMILES) | IFI
Cc1cc(C)c(C(=O)Nc2n[nH]c3nnc(-c4cccc(F)c4F)cc23)c(C)c1 | -0%
CCc1cn2c3c(cc(C(=O)N[C@@H](Cc4cccc(F)c4)[C@H](O)CNC4CCCCC4)cc13)N(C)S(=O)(=O)CC2 | 2.94%
CC(=O)N(C)C1CCN(Cc2ccc(-c3cccc(-c4nc5cc(F)ccc5[nH]4)c3)cc2)C1 (stereo not drawn) | 1.43%
CC1CCCCN1CCCNc1nc(NCc2ccccc2)c2ccccc2n1 (stereo not drawn) | 5%
O=C(Nc1ccc(-c2cccc(-c3nc4cc(C(F)(F)F)ccc4[nH]3)c2)cc1)c1cccnc1 | 3.67%
NC(=O)c1cccc(C(=O)Nc2cccc(-c3ccc(-c4nc5cc(C(F)(F)F)ccc5[nH]4)cc3)c2)c1 | 6.67%
COc1cc(NCCCNC(=O)c2cc3c(Cl)cc(Cl)cc3[nH]2)nc2ccccc12 | 14.2%
CC(C)CCN1CCCN(Cc2ccc(C(=O)Nc3ccc(Cl)cc3)cc2)CC1 | 10%
CN(C)c1ccc(NC(=O)Nc2ccnc3ccccc23)cc1Br | 6.61%
Clc1cc(Nc2ccnc3ccc(Br)cc23)ccc1Oc1ccc(Cl)c2ccccc12 | 0%
CCOC(=O)C1=C(C)NC2=C(C(=O)CC(C)(C)C2)C1c1ccc(Br)cc1 (stereo not drawn) | 1.57%
Cn1ccnc1CNC(=O)c1ccc(-c2cccc(-c3nc4cc(F)ccc4[nH]3)c2)cc1 | 4.63%
CCCC(CNCc1cccc(OC(F)(F)C(F)F)c1)CNc1cc(=O)c2ccccc2[nH]1 (stereo not drawn) | 2.86%
Oc1ccc(Nc2nc(N3CCCC3)c3ccccc3n2)cc1 | 9.09%
Cc1nc(N)nc(N)c1-c1ccc2ccccc2c1 | 2.21%
N=C1c2ccccc2CN1CC(=O)c1ccc(Cl)c(Cl)c1 | 1.39%
Oc1cc(NCc2ccccc2NCc2ccc(Cl)c(Cl)c2)nc2ccccc12 | 9.02%
OC1CCCN(Cc2cccc(-c3ccc(-c4nc5cc(F)ccc5[nH]4)cc3)c2)C1 (stereo not drawn) | -0%
Nc1ncc(-c2ccc(Cl)c(Cl)c2)c(N)n1 | 1.49%
Cc1ccc(Nc2nccc(Nc3ccc4c(c3)nc(Nc3cc(C(C)(C)C)on3)n4C)n2)cc1S(C)(=O)=O | 7.63%

Structure (SMILES) | IFI
COc1ccc2nccc([C@@H](O)CN3CCC(NCc4ccc5c(c4)OCCO5)CC3)c2c1 | 6.06%
COc1ccc(C2C(C(=O)OC3CCCCC3)=C(C)NC3=C2C(=O)CCC3)cc1Br (stereo not drawn) | 4.76%
CCCn1c(Sc2ccc(C#N)c([N+](=O)[O-])c2)nnc1-c1cc(OC)cc(OC)c1 | 3.5%
COc1c(C2CCN(CCCCNC(=O)c3ccc(-c4ccc(C#N)cc4)cc3)CC2)cc(Cl)c2c1CCCC2 | 9.52%
Cc1nc2nc(N)nc(N)c2c(C)c1Cc1cccc(C(F)(F)F)c1 | 2.19%
NCC1CCCN1Cc1cccc(-c2ccc(-c3nc4ccccc4[nH]3)s2)c1 (stereo not drawn) | 0.97%
O=C(NC1CC1)c1ccc(N2CCN(Cc3ccc(Cl)cc3)CC2)nc1 | 2.04%
CC(C)c1ccc(NS(=O)(=O)c2cccc(C(=O)NC3CCN(CC4CCCCC4)CC3)c2)cc1 | 1.71%
CCNCc1ccc(-c2cccc(-c3nc4ccccc4[nH]3)c2)cc1 | 2.91%
CCc1ccc(NC(=O)c2ccc(CN3CCCN(Cc4cccc(C)c4)CC3)cc2)cc1 | 12.3%
O=C(Cc1ccc[n+]([O-])c1)Nc1cccc(-c2cccc(-c3nc4cc(F)ccc4[nH]3)c2)c1 | 3.67%
COc1c(C2CCN(CCCCNC(=O)c3ccc(-c4ccc(Cl)cc4)cc3)CC2)ccc2c1C(C)(C)CCC2(C)C | 6.82%
Cc1cccc2nc(-c3cccc(-c4ccc(CN5CCCC5CN)cc4)c3)[nH]c12 (stereo not drawn) | 8%
N#Cc1ccc(-c2ccc(OCC(O)CN3CCCN(Cc4cccc(O)c4Cl)CC3)cc2)cc1 (stereo not drawn) | 7.63%
C=CC(=O)Nc1ccc(Cl)cc1C(O)c1ccccc1 (stereo not drawn) | 1.41%
Cc1[nH]c(C)c(Cc2ccc(Oc3ccc(OC(F)(F)F)cc3)cc2)c(=O)c1Br | 5.66%
COc1ccc(CN(C)CCOc2ccc(NC(=O)c3cccc4c(=O)cc(-c5ccccc5)[nH]c34)cc2)cc1OC | 5.84%
CCN(CC)CCN(Cc1ccc(-c2ccc(C(F)(F)F)cc2)cc1)C(=O)Cn1c(SCc2ccc(F)cc2)nc(=O)c2sccc21 | 5.07%
